Source: the supplement of paper PMC3334620
Whole data set: some 33,000 sequences, median “E-score (-0.5 to 0.5)” near -0.011, cut for the highest 2% near 0.28. The list shows a part of the results.

Target: T1, Gcr1 (UniProt P07261)
T1 sequence: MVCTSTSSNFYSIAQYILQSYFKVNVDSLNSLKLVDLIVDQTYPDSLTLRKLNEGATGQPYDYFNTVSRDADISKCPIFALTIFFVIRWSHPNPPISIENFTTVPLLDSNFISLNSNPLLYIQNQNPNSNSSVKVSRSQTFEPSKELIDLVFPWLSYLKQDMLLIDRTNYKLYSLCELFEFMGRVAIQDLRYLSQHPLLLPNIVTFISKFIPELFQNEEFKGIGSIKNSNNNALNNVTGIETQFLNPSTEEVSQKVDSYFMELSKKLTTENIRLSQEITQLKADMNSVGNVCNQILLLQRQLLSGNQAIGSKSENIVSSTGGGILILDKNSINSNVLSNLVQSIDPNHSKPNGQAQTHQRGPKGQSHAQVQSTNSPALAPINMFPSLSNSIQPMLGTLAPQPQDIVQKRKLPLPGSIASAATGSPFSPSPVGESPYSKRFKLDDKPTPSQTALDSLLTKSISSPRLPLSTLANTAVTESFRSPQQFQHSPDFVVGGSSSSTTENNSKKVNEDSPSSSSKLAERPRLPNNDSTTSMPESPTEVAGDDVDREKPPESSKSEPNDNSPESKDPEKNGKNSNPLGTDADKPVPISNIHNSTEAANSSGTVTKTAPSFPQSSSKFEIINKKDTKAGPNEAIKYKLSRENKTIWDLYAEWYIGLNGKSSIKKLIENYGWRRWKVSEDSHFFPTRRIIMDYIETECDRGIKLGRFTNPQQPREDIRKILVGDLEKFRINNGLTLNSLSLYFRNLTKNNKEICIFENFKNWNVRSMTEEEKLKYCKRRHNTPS
Assay: PBM E-score (8-mer binding enrichment) (E-score (-0.5 to 0.5)); higher = stronger / more preferred TF binding; most listed sequences are background and not binding sites
Conditions: protein concentration: 100 nM; construct: GST-full length
Summary of the method: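 For each ungapped eight-base word taken together with its reverse complement, the Universal PBM Analysis Suite assigned an E-score. Binding data came from GST-tagged yeast transcription factors, applied at about 100-200 nM, on universal all-10-mer Agilent arrays made double-stranded by primer extension. Fluorescent anti-GST marked bound protein, and scans were normalised with masliner.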

| Sequence | PBM E-score |
| --- | --- |
| CCCTACCA | -0.0731 |
| AGTTTGCC | -0.134 |
| AAAATTGA | 0.11 |
| CGAAAGGC | 0.0349 |
| GCGGCAGA | -0.0658 |
| GACAGGCC | -0.0716 |
| TACTCTCA | -0.076 |
| CGAAGCGC | 0.0302 |
| GTTGAGCA | -0.147 |
| GAAAGGAC | -0.258 |
| GACAGCTC | -0.261 |
| GATTGTGA | -0.112 |
| ATAGTTAA | -0.0481 |
| CGCCGGTC | -0.154 |
| CCGAGCCC | -0.21 |
| ATCCAATA | 0.303 |
| AGCTACCG | -0.00576 |
| AGTGTACG | -0.198 |
| ACGCCACT | 0.168 |
| CCCAACCC | 0.107 |
| CAGAACTA | -0.0418 |
| TAAGCGGA | -0.143 |
| CGTTAGCC | -0.00278 |
| CGCTCAAA | -0.157 |

| Sequence | PBM E-score |
| --- | --- |
| CACTGACG | -0.156 |
| GATAATTA | 0.239 |
| AGAGGGTA | -0.235 |
| AACTGCTG | -0.124 |
| AAATAGGA | 0.335 |
| CGCAGCCG | 0.0939 |
| CCGTTCTC | -0.0866 |
| CGCTGCAA | 0.0115 |
| AAGGCGCT | 0.114 |
| CAGTTTGA | 0.0368 |
| GCCGCTCC | 0.073 |
| ACACCTGT | -0.0511 |
| CCCCGGAG | -0.283 |
| GTCACAAA | 0.0383 |
| AATTCTCT | -0.138 |
| GTACCCTA | -0.015 |
| AACGTCTT | 0.158 |
| GCATCAGA | 0.0317 |
| ACTGGCCA | -0.0887 |
| GTCTCCGA | 0.0752 |
| AAATTAAA | 0.122 |
| ACGAAACA | 0.0253 |
| AATCTGCC | 0.053 |
| GTCTGCCA | -0.11 |

| Sequence | PBM E-score |
| --- | --- |
| TATAAACA | 0.116 |
| CGCTGACG | -0.159 |
| TATGTGCA | -0.0686 |
| ATTTCTTC | 0.121 |
| AGGGGCTG | -0.0372 |
| ACTCATGG | -0.0627 |
| GCCTGTTA | 0.128 |
| AGATGAAG | 0.0785 |
| GGCAACCA | 0.374 |
| ATTTGGCA | -0.152 |
| GAGACTCA | 0.0386 |
| CCACCGCC | -0.0958 |
| CAATTGAC | 0.00244 |
| CTCGAACA | -0.026 |
| ACCGACCG | -0.251 |
| AGTTCTAC | 0.061 |
| CCGTAGCC | -0.0919 |
| ACTTACTG | -0.0613 |
| CCATTGCA | -0.0173 |
| GGCTAGAC | -0.236 |
| CGGCAACG | 0.0861 |
| CTGAAGTA | 0.0169 |
| ACAACGTG | -0.0445 |
| CAGCTAAG | -0.0581 |

| Sequence | PBM E-score |
| --- | --- |
| CTGCCCAG | -0.0891 |
| CCAGTTAG | 0.0191 |
| CTGCTTAA | 0.191 |
| GCCGCCAC | 0.124 |
| AACCGGAG | 0.271 |
| CTGCAAAG | -0.205 |
| GGGGAGCA | -0.103 |
| AGCATCCA | 0.457 |
| GCAAATCC | -0.145 |
| ATGGTTAG | -0.0215 |
| CTCCACAC | 0.0816 |
| CTATCCTA | 0.0061 |
| CGGTAATC | 0.0116 |
| AAACTCGC | -0.0731 |
| AGCCCCAC | 0.176 |
| AAGAGATC | -0.169 |
| CATCTACG | -0.00848 |
| AGGTGCTC | 0.0208 |
| ATTTACCA | 0.123 |
| ACAGTTGC | 0.0975 |
| CCGCTTCC | 0.346 |
| CCACTTAA | 0.0534 |
